Data published in PubChem BioAssay AID504832 (National Center for Advancing Translational Sciences (NCATS), 2011).
About 18,000 (5.8%) of roughly 310,000 compounds were called active. The inconclusive results got no clear call from the source; some entries with a clear call stand among them for comparison. Calls follow the shape of the dose curve; as a rule, active = well fitted inhibition curve with a large enough effect; inconclusive = small, poorly fitted or top-dose-only effect, or another doubt; inactive = no such curve, though single readings can be large or run the other way. Potencies of inconclusive entries are left out as doubtful fits.

test: Primary qHTS for delayed death inhibitors of the malarial parasite plastid, 48 hour incubation; settings: P. falciparum luciferase growth in erythrocytes; series mostly up to 28.7 µM; activity change, negative = inhibition: at the top concentration
Outline: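 Cell-based growth assay: transgenic P. falciparum expressing firefly luciferase, cultured in red cells within RPMI 1640 containing 0.5% w/v Albumax, 24 mM bicarbonate and gentamycin. A drop in luciferase activity indicates inhibition.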
% is scaled to controls: 0 for no effect and ±100 for the full control effect; potency is read from the fitted curve at half-maximal effect; tags tell the direction and shape of the fitted curve.

| SMILES | Potency | activity change, negative = inhibition |
| --- | --- | --- |
| CCc1ccc(Nc2cc(=O)n(C3CCCCC3)c(=O)[nH]2)cc1 | active: 0.147 µM | – |
| CO[C@]12C[C@@H](COC(=O)c3cncc(Br)c3)CN(C)[C@@H]1Cc1cn(C)c3cccc2c13 | inconclusive [inhibitor, single point] | – |
| Cc1ccsc1C(=O)N1CCCC(CCC(=O)NCc2ccccc2F)C1 (stereo unspecified) | – | inactive: 0.252% |
| CSCCC(NS(=O)(=O)c1ccccc1F)C(=O)NNC(=O)c1csc(N2CCOCC2)n1 (stereo unspecified) | inconclusive [inhibitor, partial curve, poor fit] | – |
| CC(=O)Nc1ccc2nc(NC(=O)c3cccs3)sc2c1 | – | inactive: 132% |
| COc1ccccc1NC(=O)N1CCC(NC(=O)C(Cc2ccccc2F)NC(C)=O)CC1 (stereo unspecified) | – | inactive: -11.4% |
| COc1cccc(C(=O)NC(=S)NCc2ccco2)c1 | – | inactive: 70.4% |
| CNCC[C@H](Oc1ccc(C(F)(F)F)cc1)c1ccccc1 | active: 10.4 µM | – |
| COc1ccc(CCNC(=O)CNC(=O)c2ccccc2Br)cc1OC | – | inactive: -6.21% |
| O=C(COc1ccc([N+](=O)[O-])cc1)Nc1ccc2c(c1)CCC2 | – | inactive: -2.99% |
| O=C(N/N=C\c1ccc([N+](=O)[O-])s1)c1cncc(Br)c1 | active: 8.28 µM | – |
| COc1ccc(C(=O)C(C)Sc2nnc(C3CC3)n2C2CC2)cc1 (stereo unspecified) | – | inactive: -23.8% |
| Cn1c(=O)c2c(nc(N/N=C/c3ccc(OC(=O)c4ccco4)cc3)n2Cc2ccccc2)n(C)c1=O | inconclusive [inhibitor, single point] | – |
| CC(=C/c1ccccc1)/C=N/Nc1nc(N2CCOCC2)nc(N2CCOCC2)n1 | inconclusive [inhibitor, partial curve, poor fit] | – |
| CCN(C(=O)CSc1nnc2nc(C)cc(C)n12)c1ccccc1 | inconclusive [inhibitor, partial curve] | – |
| CN1/C(=C\C(=O)C[n+]2cccc(C(N)=O)c2)C(C)(C)c2ccccc21 | inconclusive [inhibitor, partial curve] | – |
| CCCn1c(=O)n(C)c(=O)c2c(SC(C)C(=O)NCC3CCCO3)nc(CC(C)C)nc21 (stereo unspecified) | inconclusive [inhibitor, single point] | – |
| Cn1c(N)c(C(=O)COC(=O)CCCOc2ccc(Cl)cc2Cl)c(=O)n(C)c1=O | – | inactive: 0% |
| COC(=O)c1cc(-c2ccc(S(=O)(=O)N3CCCC3)cc2)c(C(F)(F)F)s1 | inconclusive [inhibitor, single point] | – |
| Cn1c(CN2CCCC2)nc2cc(NC(=O)C3CCCCC3)ccc21 | – | inactive: 1.97% |
| COc1ccc(C)cc1N/C(N)=N/c1nc(C)cc(C)n1 | active: 11.7 µM | – |
| Cc1nn(-c2ccccn2)c2c1C(c1ccccc1Cl)C1=C(N2)c2ccccc2C1=O (stereo unspecified) | inconclusive [inhibitor, partial curve, poor fit] | – |
| O=C(OCC(=O)N1CCN(Cc2ccccc2)CC1)c1cc(Cl)ccc1[N+](=O)[O-] | – | inactive: 3.09% |

| SMILES | Potency | activity change, negative = inhibition |
| --- | --- | --- |
| CC(Sc1nc(NCc2ccccc2)nc(N2CCOCC2)n1)C(=O)Nc1ccccc1 (stereo unspecified) | inconclusive [inhibitor, partial curve] | – |
| O=c1c2c(ncn2C2CCCC2)n(Cc2ccccc2)c(=O)n1CCOc1ccc(Br)cc1 | active: 13.1 µM | – |
| C/C(=N\NC(=O)CN(c1ccccc1)S(=O)(=O)c1ccccc1[N+](=O)[O-])C(C)(C)C | inconclusive [inhibitor, single point] | – |
| CCOC(=O)N1CCC(N2CCCC(CO)(Cc3ccccc3C)C2)CC1 (stereo unspecified) | inconclusive [inhibitor, single point] | – |
| Cc1ccc(C(=O)N2CCCC(N(C)Cc3ccccc3)C2)s1 (stereo unspecified) | – | inactive: -2.64% |
| Cc1c(NC(=O)c2cc(-c3ccc(Cl)cc3)on2)c(=O)n(-c2ccccc2)n1C | – | inactive: 11.2% |
| COc1ccc(-c2nnc(NC(=O)Cc3ccccc3)s2)c(OC)c1 | – | inactive: 88% |
| CCOc1ccc(S(=O)(=O)N2CCOCC2)cc1NC(=O)CN1C(=O)NC(C)(c2ccc(C)cc2)C1=O (stereo unspecified) | active: 10.4 µM | – |
| CCCn1nc(NS(=O)(=O)c2cccc3nonc23)c2cc3cccc(C)c3nc21 | – | inactive: 4.14% |
| Cc1noc(C)c1S(=O)(=O)N(CC(=O)NC1CCC(C)CC1)c1ccc(C(C)C)cc1 (stereo unspecified) | active: 10.4 µM | – |
| COc1ccc(-n2c(O)c(C(C)=NCCc3c[nH]c4ccccc34)c(=O)[nH]c2=O)cc1 | active: 11.7 µM | – |
| O=C(Nc1ccc(S(=O)(=O)NCc2ccccc2)cc1)c1ccc(Br)o1 | inconclusive [inhibitor, single point] | – |
| NC(=S)N/N=C/c1cn(-c2ccccc2)nc1-c1cccnc1 | inconclusive [inhibitor, single point] | – |
| CCn1c2ccccc2c2cc(/C=N/NC(=O)c3ccccc3C)ccc21 | inconclusive [inhibitor, partial curve] | – |
| CC(C)CCN(C(=O)Nc1ccccc1)C(C)c1cccs1 (stereo unspecified) | inconclusive [inhibitor, single point] | – |
| Cc1ccc(S(=O)(=O)N2CCN(C(=O)c3ccco3)CC2)cc1 | – | inactive: -5.43% |
| S=c1[nH]nc(-c2ccco2)n1-c1ccccc1Cl | inconclusive [inhibitor, partial curve] | – |
| Cc1sc(NC(=O)Cc2ccc3c(c2)OCO3)nc1-c1ccc2c(c1)CCN2C(=O)c1cccc(F)c1 | inconclusive [inhibitor, partial curve, poor fit] | – |
| CC[C@@H](C)[C@H](CN[C@H](CNC)[C@@H](C)O)NCCc1ccc(OC)cc1 | inconclusive [inhibitor, partial curve] | – |
| COc1cc(OC)cc(C(=O)N[C@H](C(=O)OCC(=O)Nc2ccc(OC)c(OC)c2)C(C)C)c1 | inconclusive [inhibitor, single point] | – |
| Cc1cccc(N=Nc2c(C)[nH]n(C(N)=S)c2=O)c1C | – | inactive: 5.78% |
| Cc1nc2sc(C(=O)c3ccccc3)c(N)c2c(C)c1C | – | inactive: 30.2% |
| COc1cc(-c2nc3n(n2)C(c2ccncc2)C2=C(CCCC2=O)N3)cc(OC)c1OC (stereo unspecified) | inconclusive [inhibitor, partial curve] | – |
